# According to the supplement of paper PMC12645437, “Orthogonal IMiD-Degron Pairs Induce Selective Protein Degradation in Cells” (ACS Chemical Biology, 2025):
# Some of the results follow.
# B1: Q9UKT9 (peptide)
# chain: LGCEICGFECTQKGNLLRHIKL
# B2: Q9UKT9 (peptide)
# chain: LECPICGFWCTQKGNLLRHIKL
# B3: Q9UKT9 (peptide)
# chain: FFCEVCGAEFTQKGNLLRHIKL
# B4: Q9UKT9 (peptide)
# chain: FACDICGAFFTQKGNLLRHIKL
# B5: Q9UKT9 (peptide)
# chain: FICPQCGAWFTQKGNLLRHIKL
# B6: Q9UKT9 (peptide)
# chain: FNCEICGHDFTQKGNLLRHIKL
# B7: Q9UKT9 (peptide)
# chain: FACEICGRNFTQKGNLLRHIKL
# B8: Q9UKT9 (peptide)
# chain: FVCPICGRNFTQKGNLLRHIKL
# B9: Q9UKT9 (peptide)
# chain: FKCSVCGHSFTQKGNLLRHIKL
# B10: Q9UKT9 (peptide)
# chain: LACPICGFFCTQKGNLLRHIKL
# B11: Q9UKT9 (peptide)
# chain: FRCNVCGAEFTQKGNLLRHIKL
# B12: Q9UKT9 (peptide)
# chain: LACEICGFLCTQKGNLLRHIKL
# B13: Q9UKT9 (peptide)
# chain: FHCPICGHYFTQKGNLLRHIKL
# B14: Q9UKT9 (peptide)
# chain: FKCDICGANFTQKGNLLRHIKL
# B15: Q9UKT9 (peptide)
# chain: FFCNICGAIFTQKGNLLRHIKL
# B16: Q9UKT9 (peptide)
# chain: FCCDQCGAVFTQKGNLLRHIKL
# B17: Q9UKT9 (peptide)
# chain: FLCNQCGHTFTQKGNLLRHIKL
# B18: Q9UKT9 (peptide)
# chain: FSCNQCGAAFTQKGNLLRHIKL
# B19: Q9UKT9 (peptide)
# chain: FICNQCGAKFTQKGNLLRHIKL
# B20: Q9UKT9 (peptide)
# chain: FECNICGATFTQKGNLLRHIKL
# B21: Q9UKT9 (peptide)
# chain: FVCEICGAAFTQKGNLLRHIKL
# B22: Q9UKT9 (peptide)
# chain: FCCDICGAPFTQKGNLLRHIKL
# B23: Q9UKT9 (peptide)
# chain: FRCEICGRGFTQKGNLLRHIKL
# B24: Q9UKT9 (peptide)
# chain: FNCEQCGAVFTQKGNLLRHIKL
# B25: Q9UKT9 (peptide)
# chain: FGCNICGAAFTQKGNLLRHIKL
# B26: Q9UKT9 (peptide)
# chain: FVCDICGAKFTQKGNLLRHIKL
# B27: Q9UKT9 (peptide)
# chain: FICEVCGADFTQKGNLLRHIKL
# B28: Q9UKT9 (peptide)
# chain: FVCNQCGALFTQKGNLLRHIKL
# B29: Q9UKT9 (peptide)
# chain: FQCEQCGAIFTQKGNLLRHIKL
# B30: Q9UKT9 (peptide)
# chain: FKCDQCGAYFTQKGNLLRHIKL
# B31: Q9UKT9 (peptide)
# chain: FLCEQCGAVFTQKGNLLRHIKL
# B32: Q9UKT9 (peptide)
# chain: FQCEICGHYFTQKGNLLRHIKL
# B33: Q9UKT9 (peptide)
# chain: FRCPICGRVFTQKGNLLRHIKL
# B34: Q9UKT9 (peptide)
# chain: FWCNQCGALFTQKGNLLRHIKL
# B35: Q9UKT9 (peptide)
# chain: FTCEQCGACFTQKGNLLRHIKL
# B36: Q9UKT9 (peptide)
# chain: LLCNQCGFMCTQKGNLLRHIKL
# B37: Q9UKT9 (peptide)
# chain: FGCNQCGRWFTQKGNLLRHIKL
# B38: Q9UKT9 (peptide)
# chain: FQCNQCGRAFTQKGNLLRHIKL
# B39: Q9UKT9 (peptide)
# chain: LDCPICGFKCTQKGNLLRHIKL
# B40: Q9UKT9 (peptide)
# chain: LTCNQCGFLCTQKGNLLRHIKL
# B41: Q9UKT9 (peptide)
# chain: FYCEICGRRFTQKGNLLRHIKL
# B42: Q9UKT9 (peptide)
# chain: FRCSVCGHRFTQKGNLLRHIKL
# B43: Q9UKT9 (peptide)
# chain: FNCDICGAEFTQKGNLLRHIKL
# B44: Q9UKT9 (peptide)
# chain: LECNQCGFWCTQKGNLLRHIKL
# B45: Q9UKT9 (peptide)
# chain: FFCDQCGAMFTQKGNLLRHIKL
# B46: Q9UKT9 (peptide)
# chain: FHCNQCGHDFTQKGNLLRHIKL
# B47: Q9UKT9 (peptide)
# chain: FMCPICGAYFTQKGNLLRHIKL
# B48: Q9UKT9 (peptide)
# chain: FGCNICGAPFTQKGNLLRHIKL
# B49: Q9UKT9 (peptide)
# chain: FSCEQCGANFTQKGNLLRHIKL
# B50: Q9UKT9 (peptide)
# chain: FYCNVCGALFTQKGNLLRHIKL
# Biological target: no compound (DMSO)
# Experiment: log2 fold change of degron read counts, EGFP-low vs EGFP+ sorted cells; higher = lower degron-EGFP level without compound (poor expression or instability)
# Conditions: compound: DMSO control; 18 h
# 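Note: jurkat cells carrying a lentiviral library of mutant zinc finger degrons fused to EGFP plus mCherry, mCherry+ cells FACS sorted, degron abundance counted by next-generation sequencing.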
row,Sequence,log2 fold change of degron read counts
1,B1,-0.142
2,B2,0.806
3,B3,-0.977
4,B4,-0.372
5,B5,0.912
6,B6,-1.41
7,B7,-2.11
8,B8,-0.363
9,B9,-0.389
10,B10,1.6
11,B11,-1.03
12,B12,0.498
13,B13,0.461
14,B14,-2.05
15,B15,1.31
16,B16,-1.07
17,B17,-0.379
18,B18,-0.767
19,B19,-0.501
20,B20,-1.18
21,B21,-1.53
22,B22,-1.41
23,B23,-1.56
24,B24,-1.4
25,B25,-0.55

row,Sequence,log2 fold change of degron read counts
1,B26,-2.68
2,B27,-1.8
3,B28,-0.339
4,B29,-1.88
5,B30,-0.874
6,B31,-2.38
7,B32,-1.42
8,B33,1.3
9,B34,1.24
10,B35,-0.853
11,B36,0.746
12,B37,1.32
13,B38,-0.192
14,B39,0.315
15,B40,0.551
16,B41,-2.91
17,B42,-0.0503
18,B43,-3.31
19,B44,0.97
20,B45,-1.12
21,B46,-0.282
22,B47,0.986
23,B48,0.945
24,B49,-1.54
25,B50,0.495
